The results in this text go back to paper PMC4336329 (PLoS ONE, 2015).

Screen size: about 310,000 compounds; about 2,200 (0.71%) showed an effect of 50% or more. The effect is printed as a negative number. Some of the results follow.

Chain of human ether-à-go-go-related gene (hERG) potassium channel (Q12809 whole entry, looked up): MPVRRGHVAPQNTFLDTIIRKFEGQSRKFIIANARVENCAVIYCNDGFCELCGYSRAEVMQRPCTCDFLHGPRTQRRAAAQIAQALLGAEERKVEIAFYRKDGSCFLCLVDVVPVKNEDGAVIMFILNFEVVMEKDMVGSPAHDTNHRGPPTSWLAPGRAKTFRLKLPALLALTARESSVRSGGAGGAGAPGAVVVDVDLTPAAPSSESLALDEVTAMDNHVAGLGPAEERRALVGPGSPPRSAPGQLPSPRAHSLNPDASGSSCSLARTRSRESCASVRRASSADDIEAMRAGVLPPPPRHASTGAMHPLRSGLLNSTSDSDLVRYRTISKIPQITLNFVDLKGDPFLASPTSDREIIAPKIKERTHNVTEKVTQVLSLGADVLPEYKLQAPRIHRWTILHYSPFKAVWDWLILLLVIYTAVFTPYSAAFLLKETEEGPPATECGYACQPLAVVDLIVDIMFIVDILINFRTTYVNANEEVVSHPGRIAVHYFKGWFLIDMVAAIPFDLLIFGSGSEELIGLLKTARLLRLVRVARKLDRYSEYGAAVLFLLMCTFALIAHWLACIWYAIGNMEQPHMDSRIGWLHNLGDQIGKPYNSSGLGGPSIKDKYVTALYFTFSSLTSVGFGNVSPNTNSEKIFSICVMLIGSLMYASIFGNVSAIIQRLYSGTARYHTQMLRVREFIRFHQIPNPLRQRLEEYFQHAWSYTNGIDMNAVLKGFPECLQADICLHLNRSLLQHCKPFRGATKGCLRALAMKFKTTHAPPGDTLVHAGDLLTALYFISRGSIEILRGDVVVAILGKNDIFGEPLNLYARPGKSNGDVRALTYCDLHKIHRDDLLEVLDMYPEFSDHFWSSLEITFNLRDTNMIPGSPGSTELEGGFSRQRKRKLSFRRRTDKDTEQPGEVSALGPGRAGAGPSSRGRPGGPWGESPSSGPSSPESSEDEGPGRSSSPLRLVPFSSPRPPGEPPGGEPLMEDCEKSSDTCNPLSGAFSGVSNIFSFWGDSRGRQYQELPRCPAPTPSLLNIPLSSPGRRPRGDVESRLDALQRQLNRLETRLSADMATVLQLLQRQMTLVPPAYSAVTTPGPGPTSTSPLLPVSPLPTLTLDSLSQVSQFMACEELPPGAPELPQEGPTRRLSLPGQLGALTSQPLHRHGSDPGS

This assay has as its target human ether-à-go-go-related gene (hERG) potassium channel (human, UniProt Q12809). The experiment in a line: primary screen, population patch clamp on CHO cells stably expressing hERG.
Regarding `O=C(CCNC(=O)C1CCN(S(=O)(=O)c2ccccc2)CC1)NCc1ccc(Cl)cc1`, the “hERG current change (%, negative = inhibition) at 1uM” value is listed as 8.81%.

In the case of `COc1ccc(C(CNC(=O)c2cccc(Br)c2)N2CCCC2)cc1` (centres unmarked), the “hERG current change (%, negative = inhibition) at 1uM” value worked out at 4.27%.

With `CSc1nc(-c2ccccc2)c(-c2ccccc2)[nH]1`, the “hERG current change (%, negative = inhibition) at 1uM” value stood at 8.29%.

With `Cc1cccc(C(=O)NNC2=CC(=O)CC(C)(C)C2)c1O`, the “hERG current change (%, negative = inhibition) at 1uM” value is on record as 10.4%.

With `O=C1CCCc2ccccc2N1Cc1ccccc1`, the “hERG current change (%, negative = inhibition) at 1uM” value is given as 8.06%.

With `Cc1cccc(OCC(=O)N/N=C\c2cc3c(cc2[N+](=O)[O-])OCO3)c1C`, the “hERG current change (%, negative = inhibition) at 1uM” value is given as 1.2%.

For the compound `COC(C)(C)[C@@H](O)COc1c2ccoc2cc2oc(=O)ccc12`, the “hERG current change (%, negative = inhibition) at 1uM” value is recorded as 3.6%.

For the compound `CCCn1c(SCCN2CCOCC2)nc2c1c(=O)n(C)c(=O)n2C`, the “hERG current change (%, negative = inhibition) at 1uM” value turned out to be 13.3%.

With `CN(C(=O)C1CCN(c2ncnc3c2nc2n3CCCCC2)CC1)C1CCCCC1`, the “hERG current change (%, negative = inhibition) at 1uM” value amounted to 2.14%.

Turning to `CC(C)(C)NC(=O)C(=O)N/N=C/c1ccc(Br)cc1`, the “hERG current change (%, negative = inhibition) at 1uM” value amounted to 8.9%.

`O=Cc1cn(-c2ccc(F)cc2)c2ccccc12`: the “hERG current change (%, negative = inhibition) at 1uM” value was determined as 9.86%.

Regarding `OC1CCN(C(=S)Nc2ccc(Oc3ccccc3)cc2)CC1`, the “hERG current change (%, negative = inhibition) at 1uM” value was determined as 6.46%.

As for `CCOC(=O)C1(c2csc(N)n2)COC(=O)C1` (centres unmarked), the “hERG current change (%, negative = inhibition) at 1uM” value is given as 7.3%.

As to `COc1ccc(OC)c(NC(=O)Nc2ccc(Cl)cc2)c1`, the “hERG current change (%, negative = inhibition) at 1uM” value worked out at 8.82%.

For the compound `CN(Cc1cccnc1)C(=O)CNC(=O)COc1ccccc1`, the “hERG current change (%, negative = inhibition) at 1uM” value was found to be 14%.

`Cc1ccc(NC(=S)NC(NC(=O)c2ccco2)C(Cl)(Cl)Cl)cc1` (centres unmarked): the “hERG current change (%, negative = inhibition) at 1uM” value is 2.23%.

Turning to `O=C1CC[C@H](OCc2ccccc2)CCN1[C@H](CSc1ccccc1)Cc1ccccc1`, the “hERG current change (%, negative = inhibition) at 1uM” value was -10.6%.

Regarding `COC(=O)/C=C/c1ccc(-n2cncn2)cc1`, the “hERG current change (%, negative = inhibition) at 1uM” value is 12%.

Regarding `CCC(=O)NCCn1c(C)cc2ccccc21`, the “hERG current change (%, negative = inhibition) at 1uM” value stood at 8.84%.

As to `COc1ccc(S(=O)(=O)N2CCN(C(=O)C3CC3)CC2)cc1`, the “hERG current change (%, negative = inhibition) at 1uM” value was found to be 13.7%.

As for `Cn1c(=O)c2c(nc(CN3CCOCC3)n2CCCO)n(C)c1=O`, the “hERG current change (%, negative = inhibition) at 1uM” value was found to be 15.2%.

For `Cc1cc(NC(=O)COC(=O)c2ccco2)no1`, the “hERG current change (%, negative = inhibition) at 1uM” value is -3.74%.

`CC(C)c1csc(CN2CCC(CO)(Cc3ccccc3)CC2)n1`: the “hERG current change (%, negative = inhibition) at 1uM” value turned out to be 15.7%.

As to `Cc1ccc(CN(c2ccc(C(=O)NCc3ccc4c(c3)OCO4)cc2)S(C)(=O)=O)cc1`, the “hERG current change (%, negative = inhibition) at 1uM” value is recorded as 8.09%.

For the compound `O=C(O)COc1cccc(/C=C2/SC(=S)N(Cc3ccccc3)C2=O)c1`, the “hERG current change (%, negative = inhibition) at 1uM” value is reported as 4.86%.

For the compound `Cc1ccc(S(=O)(=O)N2CCCC2)cc1C(=O)NCc1ccccc1CN1CCCC1`, the “hERG current change (%, negative = inhibition) at 1uM” value was -7.98%.

For the compound `COc1ccc(/C=N/n2cnnc2SCc2ccc(OC)cc2)cc1`, the “hERG current change (%, negative = inhibition) at 1uM” value is 6.43%.

Turning to `Cc1ccc(S(=O)(=O)N2CCCC(NC(=O)N3CCN(c4ccccc4)CC3)C2)cc1` (centres unmarked), the “hERG current change (%, negative = inhibition) at 1uM” value is 1.92%.

With `O=C1Nc2ccc(F)cc2C12Nc1ccccc1-c1nnc(SCc3ccccc3Cl)nc1O2` (centres unmarked), the “hERG current change (%, negative = inhibition) at 1uM” value amounted to 3%.

Consider `COc1cccc(CNc2ccc(F)c(Cl)c2)c1O`, for which the “hERG current change (%, negative = inhibition) at 1uM” value is given as -1.31%.

As for `CCOC(=O)c1c(-c2ccccc2)oc2cc(Br)c(O)c(C=O)c12`, the “hERG current change (%, negative = inhibition) at 1uM” value is listed as 9.77%.

With `COC(=O)Cc1ccc(NC(=S)N2CCN(c3ccc(OC)cc3)CC2)cc1`, the “hERG current change (%, negative = inhibition) at 1uM” value was found to be 12.3%.

As for `O=c1cc(CN2CCCc3ccccc32)nc2sccn12`, the “hERG current change (%, negative = inhibition) at 1uM” value was -0.887%.

On to `CCCCCN(C(=O)CCC(=O)OCC(=O)N(CC)C1CCCCC1)c1c(N)n(CCCC)c(=O)[nH]c1=O`, for which the “hERG current change (%, negative = inhibition) at 1uM” value is on record as 13.5%.

In the case of `CCOC(=O)CSC1=C(C#N)C(c2ccc(C)s2)CC(=O)N1` (centres unmarked), the “hERG current change (%, negative = inhibition) at 1uM” value is given as 6.23%.

For the compound `O=C(NCCCN1CCN(c2cccc(Cl)c2)CC1)c1cccc(N2CCCC2=O)c1`, the “hERG current change (%, negative = inhibition) at 1uM” value is given as -11.4%.

Regarding `O=C(CSc1nc2ccccc2[nH]1)NCc1ccco1`, the “hERG current change (%, negative = inhibition) at 1uM” value was 9.43%.

As to `Cc1cc(C)c(C(=O)CSc2n[nH]c(-c3ccncc3)n2)c(C)c1`, the “hERG current change (%, negative = inhibition) at 1uM” value amounted to 15%.

With `Cl.O=C(CCN1CCc2ccccc2C(O)(c2ccccc2)C1)c1ccc2c(c1)OCCO2` (centres unmarked), the “hERG current change (%, negative = inhibition) at 1uM” value stood at 13.1%.

With `O=C(NC(=S)NCc1ccccc1)c1ccccc1F`, the “hERG current change (%, negative = inhibition) at 1uM” value amounted to 4.85%.

With `COc1cc(C(CCN2CCN(c3ccccc3)CC2)c2c(OC)cc(OC)c3ccc(=O)oc23)cc(OC)c1OC` (centres unmarked), the “hERG current change (%, negative = inhibition) at 1uM” value was 6.4%.

Turning to `COc1cc(/C=C2/NC(=O)NC2=O)ccc1OCC(=O)Nc1ccc(F)cc1`, the “hERG current change (%, negative = inhibition) at 1uM” value amounted to 18.9%.

As to `O=C(c1cn(-c2ccccc2)nc1-c1ccccc1)N1CCOCC1`, the “hERG current change (%, negative = inhibition) at 1uM” value was 2.21%.

On to `CC(NC(=O)c1ccccc1F)c1nnc(SCC(=O)NC2CCCC2)n1C` (centres unmarked), for which the “hERG current change (%, negative = inhibition) at 1uM” value is 17.8%.
